B1: CPEB3 Ribozyme (parent)
chain: UAACAGGGGGCCACAGCAGAAGCGUUCACGUCGCAGCCCCUGUCAGAUUCUGGUGAAUCUGCGAAUUCUGCUGUAUAUCUC

The values that follow come from the RNAGym collection of RNA variant scans (doi:10.1093/nar/gkz1192).

The source gives no read counts; variants with many changes may rest on few reads.

The variants in the series derive from B1. Description: self-cleavage, relative activity (ratio to wild type); higher = more cleavage; in vitro, sequencing. Put shortly:
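Libraries of CPEB3 self-cleaving ribozyme mutants came from rounds of error-prone PCR and carried barcodes, which DNA sequencing matched to variants. In vitro transcription used T7 RNA polymerase at 37°C for 5 hours, with a further 15 min in DNase I before EDTA stopped the reaction; the ribozymes cleaved during both steps. The RNA was reverse transcribed with template switching and sequenced on Illumina. Relative activity is the cleaved/total read fraction of a variant divided by that of the unmutated ribozyme, averaged over three batches with at least 5 reads.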
As to A3G A35U U41A U60C U80A, the self-cleavage came to 0.06.
Consider A3G A20U A28G U48A U72C, for which the self-cleavage is 0.06.
In the case of A3G A18G G42A it was 0.6.
Regarding A3G A18G A45G U60A G73A, the self-cleavage is 0.42.
In the case of A3G A20G U25A G63A, the self-cleavage is 0.31.
In the case of A3G A18U U26A A35G U69A A77G, the self-cleavage amounted to 1.29.
With A3G A35U C39U U43C, the self-cleavage came out at 0.14.
Take A3G A20G A64G A65G: the self-cleavage turned out to be 0.1.
For the variant A3G A15G C27U U60C U80A, the self-cleavage was 0.12.
Take A3G A18U A21G U25C C32A A45G: the self-cleavage is 0.08.
For the variant A3G A20G A21G C32U A57G G63A U72C, the self-cleavage was 0.07.
For the variant A3G A20C U26C U58A, the self-cleavage was determined as 0.28.
For A3G A15G C59A U67C U72G U74C, the self-cleavage is 0.11.
In the case of A3G A13U A20G U31C A45G U49A it was 0.61; in that of A3G A35G G46U, 0.88; in that of A3G A21C U41G U48C U54A U60C, 0.
In the case of A3G A28U U51A G52C G63U A77G it was 1.04; in that of A3G A20G U48C U54A U78C, 0.69.
Regarding A3G A20U U25C A45G A77U, the self-cleavage is 0.1.
Regarding A3G A20G G55A A57G, the self-cleavage was 0.53.
For A3G A35G U43C U67C A75U, the self-cleavage was found to be 0.21.
For the variant A3G A21G A45G U80A, the self-cleavage was determined as 0.49.
For the variant A3G A15G U41C, the self-cleavage turned out to be 0.62.
Take A3G A13G U54A A65G: the self-cleavage is 0.72.
With A3G A15G A18G A28G A45U G61C U80A, the self-cleavage stood at 0.27.
In the case of A3G A21G A57U U60A A64G A77U it was 0.1; in that of A3G A21U U31C C40A A64G, 0.61; in that of A3G A20G U51C A57C U72A, 0.11.
In the case of A3G A15U U31G U41C U43A A45G it was 0.14; in that of A3G A56G G63A, 0.83; in that of A3G A20U U43C U76G, 0.06.
Regarding A3G A21G A35U A56U U67C U76C, the self-cleavage is 0.09.
As to A3G A20G C29G A65G, the self-cleavage stood at 0.13.
For the variant A3G A15G C81U, the self-cleavage was 1.09.
In the case of A3G A56G U72A it was 0.8; in that of A3G A13G U41A G55U U58C, 0.29; in that of A3G A35G U72C, 1.25.
As for A3G A20U C39U A45G, the self-cleavage was determined as 0.35.
On to A3G A18U C50U, for which the self-cleavage amounted to 0.54.
In the case of A3G A18U U49C A64U it was 0.37; in that of A3G A21G U49C U51C U54C A56U A64U, 0.61; in that of A3G A35U U51C, 0.59.
For the variant A3G A18G G30A U54C A56G G63U U80A, the self-cleavage was determined as 0.1.
With A3G A45G U48C A64G, the self-cleavage turned out to be 0.41.
For the variant A3G A18G C40G A47U U66C U69C, the self-cleavage amounted to 0.35.
For A3G A28U U48C U58A U72A, the self-cleavage turned out to be 0.12.
With A3G A15C A35U U48C U67C, the self-cleavage was 0.3.
As to A3G A13U U26C U43C A64U, the self-cleavage turned out to be 0.41.
Consider A3G A13G G33A, for which the self-cleavage worked out at 0.55.
Regarding A3G C4U A5G, the self-cleavage worked out at 0.82.
Take A3G A21G A64G U78A: the self-cleavage is 0.54.
On to A3G A13U U80C, for which the self-cleavage is 1.
For A3G A18G U69C U78C, the self-cleavage was determined as 1.13.
In the case of A3G A45G C62G A65G U72C A77U it was 0.29; in that of A3G A20G U25C, 0.46.
In the case of A3G A21G A47G it was 0.6; in that of A3G A15G G19C U25C U60C, 0.05; in that of A3G A18U U43C U76C, 0.61.
For the variant A3G A28G A47G C68A, the self-cleavage stood at 0.34.
Consider A3G A35U A57G U66A, for which the self-cleavage worked out at 0.1.
A3G A13G U41A A47G U72C: the self-cleavage turned out to be 0.56.
In the case of A3G A21U A45G U72A U78C it was 0.05; in that of A3G A20G A28U, 0.54.
Regarding A3G A13U U54C, the self-cleavage was 1.17.
For the variant A3G A21U A35G, the self-cleavage came to 1.15.
With A3G A15U C27U U72C, the self-cleavage was found to be 0.24.
For A3G A20C U26C U48G U78A, the self-cleavage amounted to 0.57.
In the case of A3G A28G U31C U49A A56G A57U it was 0.3; in that of A3G A13G G16C, 0.13.
With A3G A15G U25C U48A G61A A65U A77G, the self-cleavage worked out at 0.07.
Consider A3G A18G U41C U51A U58A U60A, for which the self-cleavage is 0.57.
With A3G A47G U60C U76C, the self-cleavage is 0.59.
A3G A15U U54C A56U: the self-cleavage came out at 0.38.
As to A3G A18G U54C U67C, the self-cleavage is 0.34.
In the case of A3G A20G U48C A65U it was 0.07; in that of A3G A28C U48G A57G, 0.39.
Regarding A3G A13G G24A U76C, the self-cleavage amounted to 0.46.
In the case of A3G A15G A20G A21G G22C U58C it was 0.24.
Take A3G A47C U49C G55C U69A: the self-cleavage stood at 0.22.
Regarding A3G A15G A21U U76A, the self-cleavage was found to be 0.3.
For A3G A15U U54G, the self-cleavage was 0.79.
A3G A21G U43C G53A U54C U58C: the self-cleavage is 0.1.
For the variant A3G A21G C32U, the self-cleavage amounted to 0.14.
